{"source": "paper PMC4336329", "about": "(PLoS ONE, 2015)", "note": "Hit rate of the full screen: of about 310,000 compounds, about 14,000 (4.5%) showed an effect of 50% or more. The effect is printed as a negative number. The list shows a part of the results. Where no end group is shown, it is not given here.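 Further: peak tail current of the secondary pulse compared with the same well before compound.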"}
{"target": "human ether-à-go-go-related gene (hERG) potassium channel (human, UniProt Q12809)", "sequence (Q12809 whole entry, looked up)": "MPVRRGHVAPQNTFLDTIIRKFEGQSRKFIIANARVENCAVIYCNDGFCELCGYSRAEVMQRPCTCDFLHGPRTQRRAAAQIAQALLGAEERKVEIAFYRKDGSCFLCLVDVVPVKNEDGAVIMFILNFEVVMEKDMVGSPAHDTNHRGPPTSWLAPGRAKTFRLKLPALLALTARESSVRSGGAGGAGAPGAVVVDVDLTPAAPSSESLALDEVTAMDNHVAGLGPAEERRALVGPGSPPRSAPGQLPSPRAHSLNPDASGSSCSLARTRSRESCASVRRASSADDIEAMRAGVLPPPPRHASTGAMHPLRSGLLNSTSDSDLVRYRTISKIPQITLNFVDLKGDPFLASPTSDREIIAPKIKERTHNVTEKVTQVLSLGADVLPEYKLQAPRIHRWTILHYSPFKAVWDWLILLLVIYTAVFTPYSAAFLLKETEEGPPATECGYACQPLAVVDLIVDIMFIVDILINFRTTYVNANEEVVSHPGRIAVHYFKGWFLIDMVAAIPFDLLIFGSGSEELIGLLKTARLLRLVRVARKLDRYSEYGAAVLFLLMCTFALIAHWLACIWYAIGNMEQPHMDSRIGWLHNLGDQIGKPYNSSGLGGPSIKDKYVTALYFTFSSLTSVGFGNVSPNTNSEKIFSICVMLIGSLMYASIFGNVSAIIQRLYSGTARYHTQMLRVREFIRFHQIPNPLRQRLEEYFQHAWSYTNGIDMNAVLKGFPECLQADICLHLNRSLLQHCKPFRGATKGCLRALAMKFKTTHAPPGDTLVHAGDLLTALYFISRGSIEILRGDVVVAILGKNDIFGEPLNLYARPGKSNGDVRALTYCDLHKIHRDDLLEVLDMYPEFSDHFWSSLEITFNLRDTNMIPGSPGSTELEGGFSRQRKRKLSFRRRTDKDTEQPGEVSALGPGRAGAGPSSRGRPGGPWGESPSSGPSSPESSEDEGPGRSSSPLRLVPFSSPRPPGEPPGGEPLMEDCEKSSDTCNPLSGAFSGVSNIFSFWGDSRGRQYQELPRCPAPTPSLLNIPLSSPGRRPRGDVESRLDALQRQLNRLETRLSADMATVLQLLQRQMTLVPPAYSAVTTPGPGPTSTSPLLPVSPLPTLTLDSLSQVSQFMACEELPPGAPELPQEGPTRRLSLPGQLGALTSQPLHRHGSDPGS", "test": "primary screen, population patch clamp on CHO cells stably expressing hERG", "units": {"hERG current change (%, negative = inhibition) at 10uM": "%"}}
{"compound": "CN(C)S(=O)(=O)c1ccc(C(=O)OCc2ccc([N+](=O)[O-])cc2)cc1", "hERG current change (%, negative = inhibition) at 10uM": 17.6}
{"compound": "O=C(Cc1ccc(Br)cc1)Nc1cccc(Cl)c1", "hERG current change (%, negative = inhibition) at 10uM": 5.03}
{"compound": "COc1cc(/C=C/C(=O)OCC(=O)N2CCC(Cc3ccccc3)CC2)ccc1O", "hERG current change (%, negative = inhibition) at 10uM": -1.08}
{"compound": "Cc1ccc(CNC(=O)CCC(=O)N2CC(C)Oc3ccc(Cl)cc32)cc1", "note": "(centres unmarked)", "hERG current change (%, negative = inhibition) at 10uM": -43.1}
{"compound": "COc1ccccc1N1CCN(C(=O)CCc2ccc(S(=O)(=O)NC(C)C)cc2)CC1", "hERG current change (%, negative = inhibition) at 10uM": 0.143}
{"compound": "CCN(c1ccccc1)S(=O)(=O)c1ccc(Cl)c(NC(=O)COC(=O)c2cccc(OC)c2O)c1", "hERG current change (%, negative = inhibition) at 10uM": -3.62}
{"compound": "CC1(C)CC(=O)C(CC2=C(O)CC(C)(C)CC2=O)=C(O)C1", "hERG current change (%, negative = inhibition) at 10uM": -0.604}
{"compound": "CCCCN(C(=O)CSc1n[nH]c(-c2ccc(C)cc2)n1)c1c(N)n(CCCC)c(=O)[nH]c1=O", "hERG current change (%, negative = inhibition) at 10uM": 5.4}
{"compound": "COc1ccc(-c2c(C)nn3c(N4CCC5(CC4)OCCO5)cc(C)nc23)cc1OC", "hERG current change (%, negative = inhibition) at 10uM": 16.5}
{"compound": "Cc1ccc(NS(=O)(=O)c2ccc(NC(=O)C(C)Sc3ccc(Cl)cc3)cc2)c(C)c1", "note": "(centres unmarked)", "hERG current change (%, negative = inhibition) at 10uM": 0.496}
{"compound": "CCCCN1C(=O)C(NC(C)=O)c2ccccc21", "note": "(centres unmarked)", "hERG current change (%, negative = inhibition) at 10uM": 7}
{"compound": "Cc1ccc([C@@H]2[C@@H]3C(=O)N(c4ccccc4)C(=O)[C@@H]3[C@]3(C)C(=O)N(Cc4ccccc4)CC(=O)N23)o1", "hERG current change (%, negative = inhibition) at 10uM": 9.04}
{"compound": "CC(C)S(=O)(=O)c1nsc2nc(=O)c(/C=C3\\C=Nc4ccccc43)c(N)n12", "hERG current change (%, negative = inhibition) at 10uM": 13.6}
{"compound": "O=C(OCC(=O)c1ccc([N+](=O)[O-])cc1)/C(=C\\c1ccc(Cl)cc1)NC(=O)c1ccccc1", "hERG current change (%, negative = inhibition) at 10uM": -64.4}
{"compound": "COc1ccc(C(=O)NCCc2nnc3ccc(SCC(=O)Nc4ccccc4F)nn23)cc1", "hERG current change (%, negative = inhibition) at 10uM": -12.6}
{"compound": "Cc1cc(Oc2ccc(OCC(N)=O)nn2)nc(Cl)n1", "hERG current change (%, negative = inhibition) at 10uM": 7.6}
{"compound": "O=C(Nc1ccc(F)cc1)N1CCN(c2ncccn2)CC1", "hERG current change (%, negative = inhibition) at 10uM": -2.77}
{"compound": "Cc1ccc(CN(C)C(=O)CN2C(=O)NC3(CCCc4ccccc43)C2=O)c(C)c1", "note": "(centres unmarked)", "hERG current change (%, negative = inhibition) at 10uM": -35.4}
{"compound": "N#C/C(=C(/O)CN1CCCCC1)c1nc(-c2ccc(Cl)cc2)cs1", "hERG current change (%, negative = inhibition) at 10uM": -1.62}
{"compound": "CCC(C)[C@H](NC(=O)N1CCn2c1nc1ccccc12)C(=O)NCc1ccc(OC)cc1", "note": "(some centres unmarked)", "hERG current change (%, negative = inhibition) at 10uM": 0.965}
{"compound": "Cn1c(=O)c2c(nc(SCC(=O)NCc3ccc4c(c3)OCO4)n2Cc2ccc(F)cc2)n(C)c1=O", "hERG current change (%, negative = inhibition) at 10uM": -63.1}
{"compound": "Cc1sc2ncnc(Nc3ccc(O)cc3)c2c1C", "hERG current change (%, negative = inhibition) at 10uM": 14.3}
{"compound": "CC(=O)c1cc(C(=O)N2CCCC(CCC(=O)N(C)CCc3ccccn3)C2)cs1", "note": "(centres unmarked)", "hERG current change (%, negative = inhibition) at 10uM": 8.94}
{"compound": "COC(=O)c1ccc(/C=N/Nc2nc3ccccc3[nH]2)cc1", "hERG current change (%, negative = inhibition) at 10uM": 11.4}
{"compound": "CC(NC(=O)C(C)(C)C)C(c1cccs1)N1CCOCC1", "note": "(centres unmarked)", "hERG current change (%, negative = inhibition) at 10uM": -3.2}
{"compound": "Cc1cc(C)n(-c2ccc(C(=O)N3CCN(S(=O)(=O)c4ccc(C(C)C)cc4)CC3)cc2)n1", "hERG current change (%, negative = inhibition) at 10uM": -18.4}
{"compound": "O=C(NCc1ccco1)c1cc(-c2ccco2)on1", "hERG current change (%, negative = inhibition) at 10uM": 4.86}
{"compound": "Cc1ccc(N(CCCCN2C(=O)c3ccccc3C2=O)C(=O)c2cccs2)cc1", "hERG current change (%, negative = inhibition) at 10uM": -67.3}
{"compound": "O=C(Cc1c[nH]c2ccccc12)NCc1ccco1", "hERG current change (%, negative = inhibition) at 10uM": 3.9}
{"compound": "COC(=O)c1ccc2c(=O)n(CCN3CCOCC3)c(SCC(=O)Nc3cccc(OC)c3)nc2c1", "hERG current change (%, negative = inhibition) at 10uM": -37.9}
{"compound": "COc1ccc([N+](=O)[O-])cc1NC(=O)C1(c2ccc(OC)c(OC)c2)CCOCC1", "hERG current change (%, negative = inhibition) at 10uM": -14.4}
{"compound": "CSCC[C@H](NC(=O)COc1ccc(Cl)cc1)c1nc2ccccc2[nH]1", "hERG current change (%, negative = inhibition) at 10uM": -56.5}
{"compound": "O=C(Oc1cccc(-n2cnnn2)c1)c1sc2ccccc2c1Cl", "hERG current change (%, negative = inhibition) at 10uM": 13.4}
{"compound": "Cn1c(NCC2CCCO2)nc2c1c(=O)n(Cc1ccccc1)c(=O)n2C", "note": "(centres unmarked)", "hERG current change (%, negative = inhibition) at 10uM": -1.06}
{"compound": "Cc1oc(-c2ccc(Cl)cc2)nc1CN1CCC(C(=O)NCc2cccnc2)CC1", "hERG current change (%, negative = inhibition) at 10uM": -65.9}
{"compound": "COc1cccc(NC(=S)N2CCn3cccc3C2c2cccnc2)c1", "note": "(centres unmarked)", "hERG current change (%, negative = inhibition) at 10uM": -22.4}
{"compound": "C#CC(=O)N(c1cccc(OC)c1)C(C(=O)NC1CCCC1)c1cccs1", "note": "(centres unmarked)", "hERG current change (%, negative = inhibition) at 10uM": -1.56}
{"compound": "COc1cccc(C(=O)NCCS(=O)(=O)N(C)Cc2ccccc2)c1", "hERG current change (%, negative = inhibition) at 10uM": -27.3}
{"compound": "Cc1ccc(S(=O)(=O)N2[C@@H](c3ccc(Cl)cc3)C(C(=O)O)=CC[C@H]2c2ccc(Cl)cc2)cc1", "hERG current change (%, negative = inhibition) at 10uM": 4.26}
{"compound": "COc1ccc(N=C2CCS(=O)(=O)c3sccc32)cc1", "hERG current change (%, negative = inhibition) at 10uM": 15.1}
{"compound": "Cc1cc(N2C(=O)C(O)=C(C(=O)c3ccco3)C2c2cccc(O)c2)no1", "note": "(centres unmarked)", "hERG current change (%, negative = inhibition) at 10uM": 18.5}
{"compound": "C=CCn1c(COc2cccc(C)c2C)nnc1SCC(=O)N1CCN(c2ccccc2)CC1", "hERG current change (%, negative = inhibition) at 10uM": -48.7}
{"compound": "COc1ccccc1CNC(=O)COC(=O)c1cc(S(=O)(=O)N2CCOCC2)ccc1Cl", "hERG current change (%, negative = inhibition) at 10uM": -40.1}
{"compound": "C=C1c2ccc(C)cc2NC(=O)N1c1ccccc1", "hERG current change (%, negative = inhibition) at 10uM": -1.2}
{"compound": "CC1CC(=O)N(CC(=O)NCc2ccco2)c2ccccc2S1", "note": "(centres unmarked)", "hERG current change (%, negative = inhibition) at 10uM": -18.4}
{"compound": "Cc1cccc(-n2nnnc2SCC(=O)Nc2cccc(S(N)(=O)=O)c2)c1", "hERG current change (%, negative = inhibition) at 10uM": 3.64}
{"compound": "Cc1ccc(C)c(N2CCN(C(=O)CCCn3ncn4c(cc5occc54)c3=O)CC2)c1", "hERG current change (%, negative = inhibition) at 10uM": -63.4}
{"compound": "COC(=O)c1ccc2c(=O)[nH]c(CSc3nc(C)cs3)nc2c1", "hERG current change (%, negative = inhibition) at 10uM": 22.7}
{"compound": "CC(=O)Nc1cccc(C(=O)OC2CCOC2=O)c1", "note": "(centres unmarked)", "hERG current change (%, negative = inhibition) at 10uM": -1.99}
{"compound": "CCc1ccc(NC(=O)NCCCN2CCCC2=O)cc1", "hERG current change (%, negative = inhibition) at 10uM": 0.255}
{"compound": "RKDVY", "hERG current change (%, negative = inhibition) at 10uM": 19.1}
{"compound": "COc1cccc(CNC(=O)c2cccnc2Sc2ccc(Cl)cc2)c1", "hERG current change (%, negative = inhibition) at 10uM": 16.3}
{"compound": "O=C(NNC(=S)NCc1ccc(Cl)cc1)c1ccc(Br)o1", "hERG current change (%, negative = inhibition) at 10uM": 24.9}
